Measured values reported in PubChem BioAssay AID651820 (National Center for Advancing Translational Sciences (NCATS), 2012).
Screen size: about 340,000 compounds; about 12,000 (3.5%) were called active. Inconclusive results, whose numbers are uncertain, are shown with a selection of clear calls. Calls follow the shape of the dose curve; as a rule, active = well fitted inhibition curve with a large enough effect; inconclusive = small, poorly fitted or top-dose-only effect, or another doubt; inactive = no such curve, though single readings can be large or run the other way. No potency is given beside an inconclusive call; the fits are too rough.

Test: qHTS Assay for Inhibitors of Hepatitis C Virus (HCV)
Details: Huh7.5.1 HCVcc-Cre (HCVcc is cell-culture hepatitis C virus) infection, luciferase reporter, 44 h; activity change, negative = inhibition: at 41.8 µM (top of the series) unless noted
In short: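 Luciferase read-out (15 sec integration) after a 15 min room-temperature substrate step quantifies HCVcc-Cre infection. Cells, 1,000 per well, had compound added 4 h post-plating, then virus at ~0.5 moi, and were cultured 44 h.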
% is scaled to controls: 0 for no effect and ±100 for the full control effect; potency is read from the fitted curve at half-maximal effect; tags tell the direction and shape of the fitted curve.

SMILES | Potency | activity change, negative = inhibition
Nc1nnc(SCC(=O)Nc2sc3c(c2C(=O)c2ccccc2)CCCC3)s1 | inconclusive [inhibitor, partial curve] | –
CSCCC1NC(=O)C(C(C)=NNC(N)=O)=C1O (stereo unspecified) | – | inactive: 20.9%
CC(C)CN(CC(C)C)S(=O)(=O)N1CCC(C(=O)NCCc2ccc(Cl)cc2)CC1 | inconclusive [inhibitor, partial curve] | –
O=C(NCCCN1CCCC1=O)c1ccccc1OCc1ccc(Cl)cc1Cl | – | inactive: -8.57%
C/C(=N\NC(=O)c1ccc(-c2ccccc2)cc1)C1C(=O)c2ccccc2C1=O | inconclusive [inhibitor, single point] | –
CCC1Nc2ncnc(N3CCN(c4ccccc4)CC3)c2N(Cc2ccc(C)cc2)C1=O (stereo unspecified) | active: 2.82 µM | –
NC(=O)c1nsc(C(=O)N(Cc2ccccc2Cl)C(C(=O)NCC2CCCO2)c2ccc(O)cc2)c1N (stereo unspecified) | – | inactive: -13%
O=S(=O)(c1cccc(COc2ccc(Cl)cc2Cl)c1)N1CCOCC1 | inconclusive [inhibitor, partial curve, poor fit] | –
O=C(CCl)Nc1ccc(Sc2ccc(NC(=O)CCl)cc2)cc1 | active: 3.98 µM | –
COCCCN(C(=O)C(C)Oc1ccc(Br)cc1)c1c(N)n(Cc2ccccc2)c(=O)[nH]c1=O (stereo unspecified) | inconclusive [inhibitor, partial curve] | –
O=C1C2CCCN2C(c2cccnc2)N1c1ccc(Cl)c(Cl)c1 (stereo unspecified) | – | inactive: -3.75%
COC(=O)c1c(C)[nH]c(C(=O)OCC(=O)N(CC(C)C)c2c(N)n(Cc3ccccc3)c(=O)[nH]c2=O)c1C | inconclusive [inhibitor, single point] | –
COc1ccccc1C(=O)NNC1=C(C(=O)C(F)(F)F)CCC1 | inconclusive [inhibitor, single point] | –
CCN(CC)C(=O)c1cccc2nc3ccccc3nc12 | – | inactive: 23.2%
Cc1ccc(S(=O)(=O)N(C)C[C@@H]2Oc3ccc(NS(=O)(=O)c4ccccc4)cc3CC(=O)N([C@@H](C)CO)C[C@H]2C)cc1 | active: 0.562 µM | –
CSCC[C@H](NS(=O)(=O)c1ccc(C)cc1)C(=O)N1CCC(C(=O)N[C@@H](Cc2ccccc2)C(=O)O)CC1 | inconclusive [inhibitor, partial curve, poor fit] | –
O=C(NCc1ccc2c(c1)OCO2)c1ccc(CS(=O)Cc2ccc(Cl)cc2)o1 (stereo unspecified) | active: 11.2 µM | –
Cc1ccc(C)c(C(=O)CN2C3=NCCCN3c3ccccc32)c1 | inconclusive [inhibitor, single point] | –
CC(NC(=O)NC(=O)c1cccc(Cl)c1)c1ccccc1 (stereo unspecified) | inconclusive [inhibitor, single point] | –
Cc1ccc(C(=O)NCC(=O)OCn2nnc3ccccc3c2=O)cc1 | inconclusive [inhibitor, single point] | –
Fc1cnc(N2CCN(c3ccccc3)CC2)nc1N1CCN(c2ccccc2)CC1 | inconclusive [inhibitor, full curve, poor fit] | –
COc1cc(C(=O)OCC(=O)Nc2cccc(S(=O)(=O)N3CCCC3)c2)ccc1OCC(C)C | inconclusive [inhibitor, partial curve] | –

SMILES | Potency | activity change, negative = inhibition
COc1cccc2sc(NNC(=O)C3=COCCO3)nc12 | inconclusive [inhibitor, partial curve] | –
O=C(Nc1ccccc1)C1=C[C@@H](c2ccc(C(F)(F)F)cc2)C[C@@H](OCc2ccc(CO)cc2)O1 | inconclusive [inhibitor, single point] | –
NS(=O)(=O)c1ccc(NC(=O)COC(=O)C2(c3ccccc3F)CCCC2)cc1 | inconclusive [inhibitor, single point] | –
CC(C)c1nc2sc3c(=O)[nH]cnc3c2c2c1CCCC2 | inconclusive [inhibitor, single point] | –
COc1ccc(Nc2nc(-c3sc(C)nc3C)cs2)c(OC)c1 | inconclusive [inhibitor, partial curve] | –
CN1CCN(CCCCOc2ccccc2-c2ccccc2)CC1 | inconclusive [inhibitor, single point] | –
O=C(NNC(=O)c1cccc(S(=O)(=O)N2CCc3ccccc32)c1)c1ccccc1 | active: 5.01 µM | –
O=C(CSc1ncccn1)NC1CCS(=O)(=O)C1 (stereo unspecified) | – | inactive: 34.6%
CCCN(CCC)C1=N/C(=C\c2ccco2)C(=O)N1c1ccccc1 | – | inactive: 7.17%
Cc1cc(C)c2c(N)c(C(=O)Nc3ccccc3F)sc2n1 | inconclusive [inhibitor, partial curve] | –
COc1ccc(CCNC(=O)C2CCN(S(=O)(=O)c3cnc[nH]3)CC2)cc1OC | inconclusive [inhibitor, partial curve] | –
CCOC(=O)C1=CN(Cc2cccc(-c3ccc4c(c3)OCO4)c2)S(=O)(=O)N(C)C1C (stereo unspecified) | inconclusive [inhibitor, single point] | –
Cc1c(C(=O)Nc2ccccc2[N+](=O)[O-])csc1-c1ccccc1 | inconclusive [inhibitor, single point] | –
CCCCCCN1Cc2ccccc2C1 | – | inactive: 9.29%
CCOC(=O)c1c(NC(=O)COC(=O)Cc2ccccc2[N+](=O)[O-])sc(C(=O)N(C)C)c1C | active: 10 µM | –
CCN1CCN(Cc2ccc(NC(=O)c3ccc(C)c(/C=C/c4cnc(Nc5cc(N6CCNCC6)nc(C)n5)cn4)c3)cc2C(F)(F)F)CC1 | inconclusive [inhibitor, single point] | –
O=C(CCN1CCN(c2ccccc2)CC1)NNC(=O)Cc1c(F)cccc1Cl | inconclusive [inhibitor, full curve, poor fit] | –
COc1ccc(NC(=O)CSc2nc(SC)ns2)c(OC)c1 | inconclusive [inhibitor, partial curve] | –
O=C(COC(=O)/C=C/c1cn(-c2ccccc2)nc1-c1ccc2c(c1)OCCO2)NC1CCS(=O)(=O)C1 (stereo unspecified) | inconclusive [inhibitor, partial curve] | –
O=C(Nc1ccc(F)cc1)c1ccc(C(=O)N2CCCC(O)C2)cc1 (stereo unspecified) | – | inactive: 7.78%
c1ccc(CC2CCN(c3ncnc4sccc34)CC2)cc1 | active: 3.98 µM | –
O=C(C[n+]1cc(Br)cc(Br)c1)c1ccc(Cl)cc1 | active: 31.6 µM | –

SMILES | Potency | activity change, negative = inhibition
COc1ccc(/C=C2\SC(=S)N(CCC(=O)NCCc3ccc(O)cc3)C2=O)cc1 | – | inactive: 0.694%
CCOC(=O)c1c(C)[nH]c(C)c1S(=O)(=O)NCCc1ccc(SC)cc1 | inconclusive [inhibitor, single point] | –
COc1ccc(C2(C)NC(=O)N(CC(=O)Nc3ccc4ccccc4c3)C2=O)cc1OC (stereo unspecified) | inconclusive [inhibitor, single point] | –
COC(=O)C1=C(c2ccc(F)cc2OCc2ccccc2)C[C@@H]2CC[C@H]1N2C(=O)NCc1ccccc1Br | inconclusive [inhibitor, single point] | –
O=C(Nc1cccc(Br)c1)c1ccc2c(c1)SC1=NS(=O)(=O)CCN12 | inconclusive [inhibitor, single point] | –
CN(c1ccccc1)c1nc(N)c([N+](=O)[O-])c(N2CCCC2)n1 | inconclusive [inhibitor, partial curve] | –
COc1cccc2[nH]c3c(N4CCCC(C)C4)ncnc3c12 (stereo unspecified) | inconclusive [inhibitor, partial curve] | –
CC(=O)O[C@@H](C[C@@H](C)C1=C2C[C@H](O)C3[C@@]4(C)CCC(=O)C(C)(C)C4CC[C@]3(C)[C@@]2(C)CC1)[C@H]1OC1(C)C (stereo partly specified) | inconclusive [inhibitor, partial curve, poor fit] | –
Cc1ccc(C(=O)N/N=C/c2nc3ccccc3n2C)cc1 | inconclusive [inhibitor, partial curve] | –
C/C(=N\Nc1nc(C)cc(-c2ccccc2)n1)c1cccc(N)c1 | active: 6.31 µM | –
CN(Cc1ccccc1)C(=O)c1[nH]cnc1C(=O)NCCCCCNC(=O)OC(C)(C)C | inconclusive [inhibitor, single point] | –
CC(C)(C)NCCOCCOc1ccc(Cl)cc1C(C)(C)C | inconclusive [inhibitor, single point] | –
COc1ccc(Nc2ncnc3ccc(Br)cc23)c(OC)c1 | inconclusive [inhibitor, single point] | –
O=C(NCCc1ccccc1)N1c2ccccc2Sc2ccccc21 | inconclusive [inhibitor, partial curve] | –
Oc1[nH]c2ccccc2c1C1=NCCCC1 | active: 35.5 µM | –
Cc1c(N=C2C=C(Br)C(=O)C(Br)=C2)c(=O)n(-c2ccccc2)n1C | – | inactive: -7.96%
O=C(Nc1ccc(Cl)cn1)C1CCCN1S(=O)(=O)c1cccc2ccccc12 (stereo unspecified) | inconclusive [inhibitor, single point] | –
CN1CCN(CC(=O)Nc2c(C(=O)c3ccccc3)oc3ccccc23)CC1 | active: 11.2 µM | –
CCOC(=O)c1oc2ccccc2c1NC(=O)c1ccccc1OC | inconclusive [inhibitor, partial curve] | –
COc1ccc(-c2cc(C(=O)N3CCN(c4ccc(F)cc4)CC3)no2)cc1 | active: 22.4 µM | –
COc1ccc(C2C(C(=O)Nc3ccccc3)=C(C)Nc3nc(CCCO)nn32)cc1 (stereo unspecified) | – | inactive: 21.2%
CS(=O)(=O)NNC(=O)c1sccc1OCc1ncc(C(F)(F)F)cc1Cl | inconclusive [inhibitor, single point] | –
